Experiments:
Experiment in all cases: cell-based or functional assay
[1] = molecular target: T1, human FGFR1c together with human beta-Klotho (KLB) (human, UniProt P11362; Q86Z14)
[2] = molecular target: T1, human FGFR1c together with human …; remark: listed apart in the source
[3] = molecular target: human glucagon-like peptide-1 (GLP-1) receptor (human, UniProt P43220)
Mouse GLP-1R = molecular target: T2, Mouse GLP-1R (mouse, UniProt O35659 22-463)
T2 sequence (looked up): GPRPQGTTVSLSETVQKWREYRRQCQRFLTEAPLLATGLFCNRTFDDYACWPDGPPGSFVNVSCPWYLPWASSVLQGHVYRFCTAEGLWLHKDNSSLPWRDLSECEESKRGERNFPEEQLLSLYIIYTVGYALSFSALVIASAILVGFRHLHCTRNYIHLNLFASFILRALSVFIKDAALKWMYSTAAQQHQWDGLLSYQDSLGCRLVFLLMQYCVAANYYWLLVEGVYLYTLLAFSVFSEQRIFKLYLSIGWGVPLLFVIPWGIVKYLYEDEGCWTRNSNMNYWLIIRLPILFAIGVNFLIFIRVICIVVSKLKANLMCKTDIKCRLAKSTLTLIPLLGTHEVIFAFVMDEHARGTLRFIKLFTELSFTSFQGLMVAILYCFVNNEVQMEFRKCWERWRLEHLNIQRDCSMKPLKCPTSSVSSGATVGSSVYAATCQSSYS

Monkey GLP-1R = Monkey GLP-1R (monkey)

B1: GLP-1RA/FGF21 Fc fusion protein SEQ ID NO: 19 (Fc fusion)
chain: HGEGTFTSDLSKQLEEERVQEFIEWLKAGGPSSGAPPPSGGGGGGGSGGGGSGGGGSA[… human IgG4 Fc with changes …]GGGSGSAHPIPDSSPLLQFGGQVRQRYLYTDDACQTEAHLEIREDGTVGGAADQSPESLLQLKALKPGVIQILGVKTSRFLCQRPDGALYGSLHFDPEACSFRELLLEDGYNVYQSEAHGLPLHLCGNKSPHRDPAPRGPARFLPLPGLPPAPPEPPGILAPQPPDVGSSDPLSMVYPSQGRSPSYAS
[1]
  pFGFR ICW EC50: 34.3 nmol/L
[2]
  pERK ICW EC50: 43.8 nmol/L
[3]
  HTRF cAMP EC50: 0.0112 nM
Mouse GLP-1R
  HTRF cAMP EC50: 0.00216 nM
Monkey GLP-1R
  HTRF cAMP EC50: 0.0109 nM

B2: GLP-1RA/FGF21 Fc fusion protein SEQ ID NO: 40 (Fc fusion)
chain: GHGEGTFTSDLSIQLEEEAVRLFIEWLLAGGPSSGAPPPSGGGGGGGSGGGGSGGGGSA[… human IgG1 Fc with changes …]GGGSGSAHPIPDSSPLLQFGGQVRQRYLYTDDACQTEAHLEIREDGTVGGAADQSPESLLQLKALKPGVIQILGVKTSRFLCQRPDGALYGSLHFDPEACSFRELLLEDGYNVYQSEAHGLPLHLPGCKSPHRDPAPRGPARFLPLPGLPPAPPEPPGILAPQPPDVGSSDPLSMVGSQGRSPSYAS
[3]
  HTRF cAMP EC50: 0.0461 nM
Mouse GLP-1R
  HTRF cAMP EC50: 0.039 nM
Monkey GLP-1R
  HTRF cAMP EC50: 0.0504 nM

B3: GLP-1RA/FGF21 Fc fusion protein SEQ ID NO: 88 (Fc fusion)
chain: HGEGTFTSDLSILLDEEAVREFIEWLLATGPSSGAPPPSGGGGGGGSGGGGSGGGGSA[… human IgG4 Fc with changes …]GGGSGSAHPIPDSSPLLQFGGQVRQRYLYTDDACQTEAHLEIREDGTVGGAADQSPESLLQLKALKPGVIQILGVKTSRFLCQRPDGALYGSLHFDPEACSFRELLLEDGYNVYQSEAHGLPLHLPGCKSPHRDPAPRGPARFLPLPGLPPAPPEPPGILAPQPPDVGSSDPLSMVGSQGRSPSYAS
[3]
  HTRF cAMP EC50: 0.033 nM

B4: GLP-1RA/FGF21 Fc fusion protein SEQ ID NO: 89 (Fc fusion)
chain: HGEGTFTSDLSILLDEEAVRLFIEWLLATGPSSGAPPPSGGGGGGGSGGGGSGGGGSA[… human IgG4 Fc with changes …]GGGSGSAHPIPDSSPLLQFGGQVRQRYLYTDDACQTEAHLEIREDGTVGGAADQSPESLLQLKALKPGVIQILGVKTSRFLCQRPDGALYGSLHFDPEACSFRELLLEDGYNVYQSEAHGLPLHLPGCKSPHRDPAPRGPARFLPLPGLPPAPPEPPGILAPQPPDVGSSDPLSMVGSQGRSPSYAS
[3]
  HTRF cAMP EC50: 0.0453 nM

B5: GLP-1RA/FGF21 Fc fusion protein SEQ ID NO: 90 (Fc fusion)
chain: HGEGTFTSDLSILLDEEAVQLFIEWLLATGPSSGAPPPSGGGGGGGSGGGGSGGGGSA[… human IgG4 Fc with changes …]GGGSGSAHPIPDSSPLLQFGGQVRQRYLYTDDACQTEAHLEIREDGTVGGAADQSPESLLQLKALKPGVIQILGVKTSRFLCQRPDGALYGSLHFDPEACSFRELLLEDGYNVYQSEAHGLPLHLPGCKSPHRDPAPRGPARFLPLPGLPPAPPEPPGILAPQPPDVGSSDPLSMVGSQGRSPSYAS
[3]
  HTRF cAMP EC50: 0.336 nM

B6: GLP-1RA/FGF21 Fc fusion protein SEQ ID NO: 95 (Fc fusion)
chain: HGEGTFTSDLSILLEEEAVREFIEWLLATGPSSGAPPPSGGGGGGGSGGGGSGGGGSA[… human IgG4 Fc with changes …]GGGSGSAHPIPDSSPLLQFGGQVRQRYLYTDDACQTEAHLEIREDGTVGGAADQSPESLLQLKALKPGVIQILGVKTSRFLCQRPDGALYGSLHFDPEACSFRELLLEDGYNVYQSEAHGLPLHLPGCKSPHRDPAPRGPARFLPLPGLPPAPPEPPGILAPQPPDVGSSDPLSMVGSQGRSPSYAS
[3]
  HTRF cAMP EC50: 0.0185 nM

B7: GLP-1RA/FGF21 Fc fusion protein SEQ ID NO: 96 (Fc fusion)
chain: HGEGTFTSDLSILLEEEAVRLFIEWLLATGPSSGAPPPSGGGGGGGSGGGGSGGGGSA[… human IgG4 Fc with changes …]GGGSGSAHPIPDSSPLLQFGGQVRQRYLYTDDACQTEAHLEIREDGTVGGAADQSPESLLQLKALKPGVIQILGVKTSRFLCQRPDGALYGSLHFDPEACSFRELLLEDGYNVYQSEAHGLPLHLPGCKSPHRDPAPRGPARFLPLPGLPPAPPEPPGILAPQPPDVGSSDPLSMVGSQGRSPSYAS
[3]
  HTRF cAMP EC50: 0.044 nM

B8: GLP-1RA/FGF21 Fc fusion protein SEQ ID NO: 171 (Fc fusion)
chain: HGEGTFTSDKSKQLAKRLVRLFIEWLIKGGPSSGAPPPSGGGGGGGSGGGGSGGGGSA[… human IgG4 Fc with changes …]GGGSGSAHPIPDSSPLLQFGGQVRQRYLYTDDACQTEAHLEIREDGTVGGAADQSPESLLQLKALKPGVIQILGVKTSRFLCQRPDGALYGSLHFDPEACSFRELLLEDGYNVYQSEAHGLPLHLPGCKSPHRDPAPRGPARFLPLPGLPPAPPEPPGILAPQPPDVGSSDPLSMVGSQGRSPSYAS
[3]
  HTRF cAMP EC50: 0.267 nM

B9: GLP-1RA/FGF21 Fc fusion protein SEQ ID NO: 174 (Fc fusion)
chain: HGEGTFTSDLSKQLAKRLVREFIEWLIEGGPSSGAPPPSGGGGGGGSGGGGSGGGGSA[… human IgG4 Fc with changes …]GGGSGSAHPIPDSSPLLQFGGQVRQRYLYTDDACQTEAHLEIREDGTVGGAADQSPESLLQLKALKPGVIQILGVKTSRFLCQRPDGALYGSLHFDPEACSFRELLLEDGYNVYQSEAHGLPLHLPGCKSPHRDPAPRGPARFLPLPGLPPAPPEPPGILAPQPPDVGSSDPLSMVGSQGRSPSYAS
[3]
  HTRF cAMP EC50: 0.077 nM

B10: GLP-1RA/FGF21 Fc fusion protein SEQ ID NO: 1 (Fc fusion)
chain: HGEGTFTSDLSKQLEEERVQLFIEWLKATGPSSGAPPPSGGGGGGGSGGGGSGGGGSA[… human IgG1 Fc with changes …]GGGSGSAHPIPDSSPLLQFGGQVRQRYLYTDDACQTEAHLEIREDGTVGGAADQSPESLLQLKALKPGVIQILGVKTSRFLCQRPDGALYGSLHFDPEACSFRELLLEDGYNVYQSEAHGLPLHLPGCKSPHRDPAPRGPARFLPLPGLPPAPPEPPGILAPQPPDVGSSDPLSMVGSQGRSPSYAS
[3]
  HTRF cAMP EC50: 0.219 nM
Mouse GLP-1R
  HTRF cAMP EC50: 0.0028 nM
Monkey GLP-1R
  HTRF cAMP EC50: 0.161 nM

B11: GLP-1RA/FGF21 Fc fusion protein SEQ ID NO: 2 (Fc fusion)
chain: HGEGTFTSDLSKQLEEERVQLFIEWLKATGPSSGAPPPSGGGGGGGSGGGGSGGGGSA[… human IgG1 Fc with changes …]GGGSGSAHPIPDSSPLLQFGGQVRQRYLYTDDACQTEAHLEIREDGTVGGAADQSPESLLQLKALKPGVIQILGVKTSRFLCQRPDGALYGSLHFDPEACSFRELLLEDGYNVYQSEAHGLPLHLPGCKSPHRDPAPRGPARFLPLPGLPPAPPEPPGILAPQPPDVGSSDPLSMVYPSQGRSPSYAS
[3]
  HTRF cAMP EC50: 0.194 nM
Mouse GLP-1R
  HTRF cAMP EC50: 0.00293 nM
Monkey GLP-1R
  HTRF cAMP EC50: 0.164 nM

B12: GLP-1RA/FGF21 Fc fusion protein SEQ ID NO: 4 (Fc fusion)
chain: HGEGTFTSDLSKQLEEERVQLFIEWLKATGPSSGAPPPSGGGGGGGSGGGGSGGGGSA[… human IgG4 Fc with changes …]GGGSGSAHPIPDSSPLLQFGGQVRQRYLYTDDACQTEAHLEIREDGTVGGAADQSPESLLQLKALKPGVIQILGVKTSRFLCQRPDGALYGSLHFDPEACSFRELLLEDGYNVYQSEAHGLPLHLPGCKSPHRDPAPRGPARFLPLPGLPPAPPEPPGILAPQPPDVGSSDPLSMVGSQGRSPSYAS
[3]
  HTRF cAMP EC50: 0.313 nM
Mouse GLP-1R
  HTRF cAMP EC50: 0.00529 nM
Monkey GLP-1R
  HTRF cAMP EC50: 0.262 nM

B13: GLP-1RA/FGF21 Fc fusion protein SEQ ID NO: 6 (Fc fusion)
chain: HGEGTFTSDLSKQLEEERVQLFIEWLKATGPSSGAPPPSGGGGGGGSGGGGSGGGGSA[… human IgG4 Fc with changes …]GGGSGSAHPIPDSSPLLQFGGQVRQRYLYTDDACQTEAHLEIREDGTVGGAADQSPESLLQLKALKPGVIQILGVKTSRFLCQRPDGALYGSLHFDPEACSFRELLLEDGYNVYQSEAHGLPLHLPGCKSPHRDPAPRGPARFLPLPGLPPAPPEPPGILAPQPPDVGSSDPLSMVYPSQGRSPSYAS
[3]
  HTRF cAMP EC50: 0.383 nM
Mouse GLP-1R
  HTRF cAMP EC50: 0.00645 nM
Monkey GLP-1R
  HTRF cAMP EC50: 0.347 nM

B14: GLP-1RA/FGF21 Fc fusion protein SEQ ID NO: 18 (Fc fusion)
chain: HGEGTFTSDLSKQLEEERVQEFIEWLKAGGPSSGAPPPSGGGGGGGSGGGGSGGGGSA[… human IgG4 Fc with changes …]GGGSGSAHPIPDSSPLLQFGGQVRQRYLYTDDACQTEAHLEIREDGTVGGAADQSPESLLQLKALKPGVIQILGVKTSRFLCQRPDGALYGSLHFDPEACSFRELLLEDGYNVYQSEAHGLPLHLCGNKSPHRDPAPRGPARFLPLPGLPPAPPEPPGILAPQPPDVGSSDPLSMVGSQGRSPSYAS
[3]
  HTRF cAMP EC50: 0.0099 nM
Mouse GLP-1R
  HTRF cAMP EC50: 0.00209 nM
Monkey GLP-1R
  HTRF cAMP EC50: 0.0102 nM

B15: GLP-1RA/FGF21 Fc fusion protein SEQ ID NO: 21 (Fc fusion)
chain: HGEGTFTSDLSIQLEEEAVQEFIEWLLATGPSSGAPPPSGGGGGGGSGGGGSGGGGSA[… human IgG4 Fc with changes …]GGGSGSAHPIPDSSPLLQFGGQVRQRYLYTDDACQTEAHLEIREDGTVGGAADQSPESLLQLKALKPGVIQILGVKTSRFLCQRPDGALYGSLHFDPEACSFRELLLEDGYNVYQSEAHGLPLHLCGNKSPHRDPAPRGPARFLPLPGLPPAPPEPPGILAPQPPDVGSSDPLSMVGSQGRSPSYAS
[3]
  HTRF cAMP EC50: 0.0938 nM
Mouse GLP-1R
  HTRF cAMP EC50: 0.00419 nM
Monkey GLP-1R
  HTRF cAMP EC50: 0.0787 nM

B16: GLP-1RA/FGF21 Fc fusion protein SEQ ID NO: 22 (Fc fusion)
chain: HGEGTFTSDLSIQLEEEAVQEFIEWLLATGPSSGAPPPSGGGGGGGSGGGGSGGGGSA[… human IgG4 Fc with changes …]GGGSGSAHPIPDSSPLLQFGGQVRQRYLYTDDACQTEAHLEIREDGTVGGAADQSPESLLQLKALKPGVIQILGVKTSRFLCQRPDGALYGSLHFDPEACSFRELLLEDGYNVYQSEAHGLPLHLCGNKSPHRDPAPRGPARFLPLPGLPPAPPEPPGILAPQPPDVGSSDPLSMVYPSQGRSPSYAS
[3]
  HTRF cAMP EC50: 0.0856 nM
Mouse GLP-1R
  HTRF cAMP EC50: 0.00388 nM
Monkey GLP-1R
  HTRF cAMP EC50: 0.0739 nM

Source: patent publication US20230250147A1 (Sanofi, published 2023)
